Measurements as given in PubChem BioAssay AID1963576 (National Center for Advancing Translational Sciences (NCATS), 2024).
Out of some 46,000 compounds screened, about 60 (0.1%) were called active. Not shown: some 3% with an inconclusive outcome. Calls follow the shape of the dose curve; as a rule, active = well fitted inhibition curve with a large enough effect; inconclusive = small, poorly fitted or top-dose-only effect; inactive = no such curve, though single readings can be large or run the other way. Some of the results follow.

Assay: Primary qHTS assay for Inhibitors of ovarian cancer metastasis using an organotypic tumor microenvironment (TME) model. Also: nearly all actives have a fitted effect of over 65% in size.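 As to activity change, negative = inhibition: plate controls were DMSO wells for no effect and tomatine positive control wells for full effect.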
Details: SKOV3ip1-GFP adhesion/invasion on 3D omental model, fluorescence; series mostly up to 45.8 µM; activity change, negative = inhibition: at the top concentration
Summary of the method: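 Adhesion/invasion was scored as fixed GFP-labeled SKOV3ip1 cell counts (488/509 nm), normalized to DMSO and tomatine controls. Cancer cells in serum-free medium, with four compound doses (0.36-46 umol/L), sat 2 hr at RT then 16 hr at 37 C on a 48 hr fibroblast/mesothelial/ECM culture.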

outcome, inactive:
O=C(Cn1c(=O)n(Cc2ccco2)c(=O)c2sc3ccccc3c21)Nc1ccccc1C(F)(F)F
Cc1nc2nc(C)c(CCC(=O)NCc3cccc(Cl)c3)c(C)n2n1
Fc1ccc(Cc2cn3cc(-c4ccc(F)cc4)nc3s2)cc1
Cc1cccc(OCC(=O)Nc2cccc(-c3nc4ccccc4s3)c2)c1
Cc1ccc(-n2nc(CO)c(C(=O)NC(C)c3ccccc3)n2)cc1C (stereo not given)
COc1cc(C2CC(=O)N(CC(=O)Nc3ccccc3F)c3ccccc3S2)cc(OC)c1OC (stereo not given)
CCSc1nc2sc3c(c2c(=O)n1-c1ccc(C)cc1)CCCC3
COc1ccc2cc3c(N)nn(C(=O)c4ccc(F)cc4Cl)c3nc2c1
Cc1cc(NC(=O)CN2CCC(O)CC2)nc2c1c(=O)oc1ccccc12
CCOc1ccc(-n2c(SCC(=O)c3ccccc3)nc3c([nH]c4ccccc43)c2=O)cc1
COc1ccc(NC(=O)c2ccc3oc(=O)c(S(=O)(=O)c4ccc(F)cc4)cc3c2)c(OC)c1
Cc1ccc(-c2nc(S(=O)(=O)c3ccc(C)cc3)c(N3CCCCC3)o2)cc1
COc1ccc2c(CNCc3ccco3)c(C(=O)O)n(Cc3ccccc3)c2c1

Activity change, negative = inhibition, inactive:
CCOc1cc(C2NC(=O)c3c(sc4c3CCN(C)C4)N2)ccc1OC(=O)c1ccc(F)cc1 (stereo not given) 1.27%
COc1cc(NC(=O)c2cc3cc4cc(OC)ccc4nc3o2)cc(OC)c1 -6.32%
CC(=O)c1cc(-c2ccc(F)cc2)n(CCC(=O)NC2CCCCC2)c1C 12%
COC(=O)c1ccccc1NC(=O)CCc1c(C)nc2cc(-c3ccc(Cl)cc3)nn2c1C 3.69%
O=C(Nc1ccc(F)cc1F)c1cc(-c2ccc3c(c2)OCO3)on1 3.77%
COC(=O)c1sc2ccccc2c1S(=O)(=O)N1CCN(c2ccc(C(C)=O)cc2)CC1 -5.74%
Cc1ccc(CCNC(=O)c2ccc(CSc3nc4ccncc4n3Cc3ccc(F)cc3)cc2)cc1 3.41%
CCC(C(=O)NCCc1ccc(SC)cc1)n1nc(C)c2c(C)n(-c3ccc(C)cc3)nc2c1=O (stereo not given) -6.6%
O=C(Nc1ccc(F)c(F)c1)c1ccc(F)c(S(=O)(=O)N2CCC3(CC2)OCCO3)c1 3.99%
COc1cccc(CNCc2c(C(=O)O)c(C)n(Cc3ccc(F)cc3Cl)c2C)c1OC -5.13%
O=C(CC1N=C2c3ccccc3N=C(SCc3cccc(F)c3)N2C1=O)NC1CCCCC1 (stereo not given) -6.88%
O=S(=O)(Nc1cccc(-c2ccc(N3CCCCC3)nn2)c1)c1ccc(F)cc1F -6.71%
CC(C)CNc1cc(NC2CCCCC2)c2c3c(onc13)-c1ccccc1C2=O -2.21%
Cc1ccc(Cl)cc1N1CCN(C(=O)c2cn(C)c3ccc(S(=O)(=O)N4CCCCC4)cc3c2=O)CC1 -7.03%
CC(C)(C)c1cc(NC(=O)Nc2ccc(-c3cn4c(n3)sc3cc(OCCN5CCOCC5)ccc34)cc2)no1 -24.7%
COc1ccc(NC(=O)CSc2c(C(C)C)cnc3c2c(=O)n(C)c(=O)n3C)c(OC)c1 2.41%
CCn1c(=O)n(CC2CCC(C(=O)NC(C)C)CC2)c(=O)c2sccc21 (stereo not given) 4.06%
CCN1CCN(c2ncnc3c2cnn3-c2ccc(F)cc2)CC1 -1.88%
CCOC(=O)c1c(C)[nH]c(C)c1S(=O)(=O)N1CCC(C(=O)Nc2ccc(OC)c(OC)c2)CC1 -1.03%
COc1ccc(C(=O)NCC(c2ccc3c(c2)OCO3)N2CCN(C)CC2)cc1OC (stereo not given) -7.35%
CCOC(=O)c1cc(CC)sc1NC(=O)COc1ccccc1C -17%
CC1(C)Cc2c(-c3ccccc3)c(-c3ccc(Cl)cc3)c(CC(=O)O)n2C1 -0.698%
CCOc1ccccc1N=Nc1c(C)[nH]n(-c2nc(-c3ccccc3)cs2)c1=O -4.08%
CC(C)c1nc2sc3c(N4CCCCC4)ncnc3c2c2c1CCCC2 2.48%
COc1ccc(CC(=O)Nc2ccc(-c3nc4ccccc4s3)c(C)c2)cc1 -1.83%
COCC(C)Nc1ncnc2c1cnn2-c1cccc(Cl)c1 (stereo not given) -3.95%
Cc1ccc(Cl)cc1N1CCN(C(=O)c2cc(S(=O)(=O)N3CCCCC3)cn2C)CC1 7.05%
COc1ccc(C(=O)Oc2ccc(C3NC(=O)c4c(sc5c4CCN(C)C5)N3)cc2OC)cc1 (stereo not given) -8.63%
COC(=O)c1ccc(CSc2nc3ccncc3n2Cc2ccc(F)cc2)cc1 0.487%
O=S(=O)(c1ccccc1)c1nnn2c1nc(NC1CCCCCC1)c1sccc12 15.6%
Cc1cccc(Cc2c(C)nc3nc(SCc4cccc(F)c4)nn3c2C)c1 -0.872%
O=C(CN(c1cccc(C(F)(F)F)c1)S(=O)(=O)c1ccccc1)Nc1cccc(Cl)c1 -28.8%
COc1cc(S(=O)(=O)n2ccnc2C(C)C)ccc1Br -1.25%
Cc1ccc(Cn2ccnc2SCC(=O)NC2CCCC2)cc1 -2.66%
CCOc1ccc(CCNC(=O)CN2C(=O)COc3ccc(S(=O)(=O)N(CC)CC)cc32)cc1 1.23%
COc1ccccc1CNC(=O)C(=O)NCC(c1cccnc1)N1CCN(c2ccc(F)cc2)CC1 (stereo not given) 2.22%
COc1ccccc1NC(=O)COC(=O)CC(C)(C)CC1=NS(=O)(=O)c2ccccc2N1 8.13%
CSc1ccc(C2c3[nH]c4ccccc4c3CCN2C(=O)CCC2CCCC2)cc1 (stereo not given) -1.29%
COC(=O)c1c(-c2cccs2)csc1NC(=O)c1ccc(C(C)(C)C)cc1 -1.84%
COc1ccc(-c2nnc(SCC(=O)c3ccc(NC(C)=O)cc3)o2)cc1OC -0.327%
COc1ccc(-c2nc3ccccc3o2)cc1NC(=O)c1ccc(OCC(C)C)cc1 -2.61%
CCc1ccc(-n2c(=O)c3ccc(C(=O)NCCc4ccccc4)cc3n(Cc3ccccc3C#N)c2=O)cc1 4.18%
Cc1ccc2c(=O)cc(C(=O)Nc3c(C(=O)c4ccccc4)oc4ccccc34)oc2c1 1.32%
CCOc1ccc(NS(=O)(=O)c2ccc3[nH]cc(C(=O)N(C)C4CCCCC4)c(=O)c3c2)cc1 2.91%
CCOC(=O)c1c(-c2ccc(C)cc2C)csc1NC(=O)c1ccccc1Cl 1.01%
NC(=O)C1CCN(C(=O)c2ccc3c(c2)N(Cc2cccc(Cl)c2)C(=O)c2ccccc2S3(=O)=O)CC1 15.6%
CC(CNC(=O)c1ccc(Nc2nc3ccccc3n3nnnc23)cc1)c1ccccc1 (stereo not given) 2.64%
